The molecules below were run against T1, hCRTH2 (Homo sapiens, UniProt Q9Y5Y4) (assay: biochemical). Settings: Ki (nM), Table A; Radioligand Binding Assay A, [3H]PGD2, HEK-hCRTH2 membranes.
T1 sequence (Q9Y5Y4 1-395): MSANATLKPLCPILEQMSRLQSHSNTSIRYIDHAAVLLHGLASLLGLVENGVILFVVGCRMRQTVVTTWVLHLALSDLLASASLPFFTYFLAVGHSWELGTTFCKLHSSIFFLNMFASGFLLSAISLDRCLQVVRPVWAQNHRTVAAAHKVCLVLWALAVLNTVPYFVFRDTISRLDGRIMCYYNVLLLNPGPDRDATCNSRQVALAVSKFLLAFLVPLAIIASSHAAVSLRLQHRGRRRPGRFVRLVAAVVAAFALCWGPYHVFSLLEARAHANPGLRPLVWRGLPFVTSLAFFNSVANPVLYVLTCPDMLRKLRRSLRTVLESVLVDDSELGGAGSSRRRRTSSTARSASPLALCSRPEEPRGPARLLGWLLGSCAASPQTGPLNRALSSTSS

| Ki [nM] | Compound |
| --- | --- |
| 5.1 to 20 | Cn1c(C(=O)N2c3ccccc3C(N(C(=O)CCC(=O)O)C3CC3)C3CCCC32)nc2ccccc21 (racemic) [17DN, 4-[cyclopropyl[cis,cis-2,3,3a,4,9,9a-hexahydro-4-[(1-methyl-1H-benzimidazol-2-yl)carbonyl]-1H-cyclopenta[b]quinolin-9-yl]amino]-4-oxobutanoic acid] |
| 201 to 7500 | O=C(O)CS(=O)(=O)N(C1CC1)C1c2ccccc2N(C(=O)c2ccc(OC(F)(F)F)cc2)C2CCCC21 (racemic) [17Do, [[cyclopropyl[cis,cis-2,3,3a,4,9,9a-hexahydro-4-[4-(trifluoromethoxy)benzoyl]-1H-cyclopenta[b]quinolin-9-yl]amino]sulfonyl]acetic acid] |
| 5.1 to 20 | O=C(O)CCC(=O)N(CC1CC1)C1c2ccccc2N(C(=O)c2ccccc2)C2CCCC12 (racemic) [17G, 4-[[cis,cis-4-benzoyl-2,3,3a,4,9,9a-hexahydro-1H-cyclopenta[b]quinolin-9-yl](cyclopropylmethyl)amino]-4-oxobutanoic acid] |
| 201 to 7500 | COC(=O)CCC(=O)N(CC1CC1)C1c2ccccc2N(C(=O)c2ccc(OC(F)(F)F)cc2)C2CCCC12 (racemic) [17J, methyl 4-[(cyclopropylmethyl)[cis,cis-2,3,3a,4,9,9a-hexahydro-4-[4-(trifluoromethoxy)benzoyl]-1H-cyclopenta[b]quinolin-9-yl]amino]-4-oxobutanoate] |
| 5.1 to 20 | O=C(O)CCC(=O)N(CC1CC1)C1c2ccccc2N(C(=O)OCc2ccccc2)C2CCCC12 (racemic) [17K, 4-(phenylmethyl) cis,cis-9-[(3-carboxy-1-oxopropyl)(cyclopropylmeth-yl)amino]-1,2,3,3a,9,9a-hexahydro-4H-cyclopenta[b]quinoline-4-carboxylate] |
| 5.1 to 20 | O=C(O)CCC(=O)N(CC1CC1)C1c2ccccc2N(C(=O)c2ccc(OC(F)(F)F)cc2)C2CCCC12 (racemic) [17L, 4-[(cyclopropylmethyl)[cis,cis-2,3,3a,4,9,9a-hexahydro-4-[4-(trifluoromethoxy)benzoyl]-1H-cyclopenta[b]quinolin-9-yl]amino]-4-oxobutanoic acid] |
| 20.1 to 200 | CC(C)N(C(=O)CCC(=O)O)C1c2ccccc2N(C(=O)c2ccccc2)C2CCCC21 (racemic) [17M, 4-[[cis,cis-4-benzoyl-2,3,3a,4,9,9a-hexahydro-1H-cyclopenta[b]quinolin-9-yl](1-methylethyl)amino]-4-oxobutanoic acid] |
| 201 to 7500 | COC(=O)CCC(=O)N(C)C1c2ccccc2N(C(=O)c2ccc(OC(F)(F)F)cc2)C2CCCC12 (racemic) [17R] |
| 5.1 to 20 | CN(C(=O)CCC(=O)O)C1c2ccccc2N(C(=O)c2ccc(OC(F)(F)F)cc2)C2CCCC12 (racemic) [17S] |
| 20.1 to 200 | CC(C)N(C(=O)CCC(=O)O)C1c2ccccc2N(C(=O)c2ccc(OC(F)(F)F)cc2)C2CCCC21 (racemic) [17T, 4-[[cis,cis-2,3,3a,4,9,9a-hexahydro-4-[4-(trifluoromethoxy)benzoyl]-1H-cyclopenta[b]quinolin-9-yl](1-methylethyl)amino]-4-oxobutanoic acid] |
| 201 to 7500 | CN(C(=O)CCC(=O)O)C1c2ccccc2N(C(=O)OCc2ccccc2)C2CCCC12 (racemic) [17U, 4-(phenylmethyl) cis,cis-9-[(3-carboxy-1-oxopropyl)methylamino]-1,2,3,3a,9,9a-hexahydro-4H-cyclopenta[b]quinoline-4-carboxylate] |
| 20.1 to 200 | CN(C(=O)CCC(=O)O)C1c2ccccc2N(C(=O)c2cccnc2)C2CCCC12 (racemic) [17V] |

The next lines start with the molecule.

| Compound | Ki [nM] |
| --- | --- |
| COc1ccc(CC(=O)N2c3ccccc3C(N(C(=O)CCC(=O)O)C3CC3)C3CCCC32)cc1 (racemic) [17BF, 4-(cyclopropyl(cis,cis-4-(2-(4-methoxyphenyl)acetyl)-2,3,3a,4,9,9a-hexahydro-1H-cyclopenta[b]quinolin-9-yl)amino)-4-oxobutanoic acid] | 20.1 to 200 |
| O=C(O)CCC(=O)N(C1CC1)C1c2ccccc2N(C(=O)c2cccc3ccccc23)C2CCCC21 (racemic) [17BG, 4-((cis,cis-4-(1-naphthoyl)-2,3,3a,4,9,9a-hexahydro-1H-cyclopenta[b]quinolin-9-yl)(cyclopropyl)amino)-4-oxobutanoic acid] | 5.1 to 20 |
| O=C(O)CCC(=O)N(C1CC1)C1c2ccccc2N(C(=O)c2ccc(Cl)cc2Cl)C2CCCC21 (racemic) [17BH, 4-(cyclopropyl(cis,cis-4-(2,4-dichlorobenzoyl)-2,3,3a,4,9,9a-hexahydro-1H-cyclopenta[b]quinolin-9-yl)amino)-4-oxobutanoic acid] | 5.1 to 20 |
| COc1ccc(CC(=O)N2c3ccccc3C(N(C(=O)CCC(=O)O)C3CC3)C3CCCC32)cc1OC (racemic) [17BJ, 4-(cyclopropyl(cis,cis-4-(2-(3,4-dimethoxyphenyl)acetyl)-2,3,3a,4,9,9a-hexahydro-1H-cyclopenta[b]quinolin-9-yl)amino)-4-oxobutanoic acid] | 20.1 to 200 |
| O=C(O)CCC(=O)N(C1CC1)C1c2ccccc2N(C(=O)c2ccc3c(c2)OCO3)C2CCCC21 (racemic) [17BK, 4-(((cis,cis)-4-(benzo[d][1,3]dioxole-5-carbonyl)-2,3,3a,4,9,9a-hexahydro-1H-cyclopenta[b]quinolin-9-yl)(cyclopropyl)amino)-4-oxobutanoic acid] | 5.1 to 20 |
| O=C(O)CCC(=O)N(C1CC1)C1c2ccccc2N(C(=O)c2ccco2)C2CCCC21 (racemic) [17BL, 4-(cyclopropyl(cis,cis-4-(furan-2-carbonyl)-2,3,3a,4,9,9a-hexahydro-1H-cyclopenta[b]quinolin-9-yl)amino)-4-oxobutanoic acid] | 20.1 to 200 |
| O=C(O)CCC(=O)N(C1CC1)C1c2ccccc2N(C(=O)C2CC2c2ccccc2)C2CCCC21 (racemic) [17BM, 4-[cyclopropyl[cis,cis-2,3,3a,4,9,9a-hexahydro-4-[(trans-2-phenylcyclopropyl)carbonyl]-1H-cyclopenta[b]quinolin-9-yl]amino]-4-oxobutanoic acid] | 1 to 5 |
| O=C(O)CCC(=O)N(C1CC1)C1c2ccccc2N(C(=O)c2ccc3ccccc3c2)C2CCCC21 (racemic) [17Bi, 4-((cis,cis-4-(2-naphthoyl)-2,3,3a,4,9,9a-hexahydro-1H-cyclopenta[b]quinolin-9-yl)(cyclopropyl)amino)-4-oxobutanoic acid] | 5.1 to 20 |
| C=CCN(C(=O)CCC(=O)O)C1c2ccccc2N(C(=O)c2ccc(OC(F)(F)F)cc2)C2CCCC12 (racemic) [17CB, 4-[[cis,cis-2,3,3a,4,9,9a-hexahydro-4-[4-(trifluoromethoxy)benzoyl]-1H-cyclopenta[b]quinolin-9-yl](2-propenyl)amino]-4-oxobutanoic acid] | 5.1 to 20 |
| O=C(O)CCC(=O)N(C1CCC1)[C@@H]1c2ccc(Cl)cc2N(C(=O)c2ccc(OC(F)(F)F)cc2)[C@@H]2CCC[C@@H]21 (racemic) [17CH, 4-[[cis,cis-6-chloro-2,3,3a,4,9,9a-hexahydro-4-[4-(trifluoromethoxy)benzoyl]-1H-cyclopenta[b]quinolin-9-yl]cyclobutylamino]-4-oxobutanoic acid] | 5.1 to 20 |
| O=C(O)c1ccccc1C(=O)N(C1CC1)[C@@H]1c2ccccc2N(C(=O)c2ccc(OC(F)(F)F)cc2)[C@@H]2CCC[C@@H]21 (racemic) [17Ci, 2-[[cyclopropyl[cis,cis-2,3,3a,4,9,9a-hexahydro-4-[4-(trifluoromethoxy)benzoyl]-1H-cyclopenta[b]quinolin-9-yl]amino]carbonyl]benzoic acid] | 201 to 7500 |

Reference: patent US8592383B2, “Cycloalkyl-fused tetrahydroquinolines as CRTH2 receptor modulators” (Merck Sharp & Dohme Corp., priority 2011, dated 2013)
